Test results as given in PubChem BioAssay (Tox21).
Where “and” joins values, the source holds several entries; their conditions need not be identical. Identical values can stand only once. The shares of active, inactive and inconclusive entries below differ from those in the screen. For some assays here: A potency beside an inconclusive call is a rough fit, not a confirmed value. Calls of active or inactive are those of the source. Unless noted, the call rests on the fitted dose curve; in most records, active means well fitted curve in the direction sought with a large enough effect in the repeat runs; inconclusive means weak or mixed curves; inactive means no such curve, though single readings can be large; an effect the other way counts as inactive or inconclusive.

Key:
[1] = qHTS assay to identify small molecule antagonists of the sonic hedgehog signaling (Shh) pathway (AID 1259369; calls by dose curve; further: nearly all actives have a fitted effect of over 45% in size; on activity change, negative = inhibition: on the % scale 0 is the no-effect control and ±100 the full control effect)
Method in brief: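 Cells are plated and held 4hr at 37 C, compounds (DMSO) are pinned in, conditioned medium is added to stimulate the pathway, and after 24hr luciferase reagent is added for 30min before luminescence is read.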

[2] = qHTS assay to identify small molecule agonists of the estrogen receptor beta (ER-beta) signaling pathway - cell viability counter screen (AID 1259380); further: nearly all actives have a fitted effect of over 30% in size
Method in brief: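 Cytotoxicity is measured in parallel with the reporter screen: after 16 hr compound exposure at 37C and a 2 hr LiveBLAzer step, CellTiter-Glo is added to the same ER-beta-UAS-bla HEK293T wells and luminescence read after 30 min.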

[3] = target: Thyrotropin receptor (Homo sapiens) (UniProt P16473); experiment: qHTS assay to identify small molecule antagonists of the thyroid stimulating hormone receptor (TSHR) signaling pathway (AID 1259385; calls by dose curve; further: nearly all actives have a fitted effect of over 20% in size; on activity change, negative = inhibition: on the % scale 0 is the no-effect control and ±100 the full control effect); conditions: TSHR-HEK293 cAMP HTRF, TSH-stimulated antagonist mode; activity change, negative = inhibition: at 92.4 µM (top of the series) unless noted
Sequence of UniProt P16473 (P16473 whole entry, looked up): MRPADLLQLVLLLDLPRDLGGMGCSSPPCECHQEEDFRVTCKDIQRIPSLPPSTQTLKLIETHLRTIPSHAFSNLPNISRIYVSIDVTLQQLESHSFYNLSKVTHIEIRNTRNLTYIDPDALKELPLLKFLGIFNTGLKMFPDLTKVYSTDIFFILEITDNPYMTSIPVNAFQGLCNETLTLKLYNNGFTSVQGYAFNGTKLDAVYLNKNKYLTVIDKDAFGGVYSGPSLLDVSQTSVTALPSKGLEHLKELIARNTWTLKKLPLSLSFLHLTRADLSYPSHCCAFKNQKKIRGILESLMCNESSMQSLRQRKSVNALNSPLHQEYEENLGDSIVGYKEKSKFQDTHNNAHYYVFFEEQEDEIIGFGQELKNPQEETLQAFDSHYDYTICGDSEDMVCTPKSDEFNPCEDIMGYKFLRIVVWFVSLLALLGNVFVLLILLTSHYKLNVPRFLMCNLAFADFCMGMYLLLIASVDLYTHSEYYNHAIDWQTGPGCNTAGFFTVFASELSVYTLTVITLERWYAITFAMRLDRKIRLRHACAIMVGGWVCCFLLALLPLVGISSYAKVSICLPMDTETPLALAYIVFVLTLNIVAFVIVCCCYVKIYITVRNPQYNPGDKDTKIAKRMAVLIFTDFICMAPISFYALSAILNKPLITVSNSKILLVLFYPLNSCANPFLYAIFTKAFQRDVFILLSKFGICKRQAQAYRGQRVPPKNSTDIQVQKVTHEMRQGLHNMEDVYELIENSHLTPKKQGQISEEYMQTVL
Method in brief: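 TSHR-HEK293 cells (800/well) plated 18 h, then compounds with Ro20-1724 and TSH at 1.5 ng/mL final, 30 min at room temperature. cAMP quantified by HTRF (cAMP-d2/anti-cAMP-cryptate, 1 h); 15 concentrations in triplicate.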

[4] = qHTS assay to identify small molecule agonists of the androgen receptor (AR) signaling pathway in the presence of an antagonist - cell viability counter screen (AID 1259379); further: nearly all actives have a fitted effect of over 25% in size
Method in brief: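 Cytotoxicity is assessed by CellTiter-Fluor in MDA-kb2 cells carrying an MMTV-driven luciferase reporter. Cells receive 3.0uM nilutamide plus compounds at 15 concentrations and incubate 16 hr at 37C without CO2 before fluorescence reading.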

[5] = qHTS assay to identify small molecule agonists of the estrogen receptor alpha (ER-alpha) signaling pathway in the presence of an antagonist - cell viability counter screen (AID 1259386);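 further: cells exposed to compounds for 22 h at 37 °C before the viability read; nearly all actives have a fitted effect of over 30% in size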
Method in brief: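 Cytotoxicity was measured in parallel with the ERE-luciferase agonist screen, in the same wells. The cells were VM7Luc4E2, which endogenously express ER-alpha, and treatment was with compounds plus 10.0nM ICI-182,780 for 22hr.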

[6] = target: Progesterone receptor (Homo sapiens) (UniProt P06401); experiment: qHTS assay to identify small molecule antagonists of the progesterone receptor (PR) signaling pathway (AID 1346795; active means well fitted inhibition curve with a large enough effect in the signal ratio in the repeat runs, not every such curve was filed as active; inconclusive means weak or mixed curves; the % refers to the signal ratio; on activity change, negative = inhibition: on the % scale 0 is the no-effect control and ±100 the full control effect); conditions: PR-UAS-bla HEK293T, beta-lactamase FRET ratio, 16 h; activity change, negative = inhibition: at 92.4 µM (top of the series) unless noted
Sequence of UniProt P06401 (P06401 whole entry, looked up): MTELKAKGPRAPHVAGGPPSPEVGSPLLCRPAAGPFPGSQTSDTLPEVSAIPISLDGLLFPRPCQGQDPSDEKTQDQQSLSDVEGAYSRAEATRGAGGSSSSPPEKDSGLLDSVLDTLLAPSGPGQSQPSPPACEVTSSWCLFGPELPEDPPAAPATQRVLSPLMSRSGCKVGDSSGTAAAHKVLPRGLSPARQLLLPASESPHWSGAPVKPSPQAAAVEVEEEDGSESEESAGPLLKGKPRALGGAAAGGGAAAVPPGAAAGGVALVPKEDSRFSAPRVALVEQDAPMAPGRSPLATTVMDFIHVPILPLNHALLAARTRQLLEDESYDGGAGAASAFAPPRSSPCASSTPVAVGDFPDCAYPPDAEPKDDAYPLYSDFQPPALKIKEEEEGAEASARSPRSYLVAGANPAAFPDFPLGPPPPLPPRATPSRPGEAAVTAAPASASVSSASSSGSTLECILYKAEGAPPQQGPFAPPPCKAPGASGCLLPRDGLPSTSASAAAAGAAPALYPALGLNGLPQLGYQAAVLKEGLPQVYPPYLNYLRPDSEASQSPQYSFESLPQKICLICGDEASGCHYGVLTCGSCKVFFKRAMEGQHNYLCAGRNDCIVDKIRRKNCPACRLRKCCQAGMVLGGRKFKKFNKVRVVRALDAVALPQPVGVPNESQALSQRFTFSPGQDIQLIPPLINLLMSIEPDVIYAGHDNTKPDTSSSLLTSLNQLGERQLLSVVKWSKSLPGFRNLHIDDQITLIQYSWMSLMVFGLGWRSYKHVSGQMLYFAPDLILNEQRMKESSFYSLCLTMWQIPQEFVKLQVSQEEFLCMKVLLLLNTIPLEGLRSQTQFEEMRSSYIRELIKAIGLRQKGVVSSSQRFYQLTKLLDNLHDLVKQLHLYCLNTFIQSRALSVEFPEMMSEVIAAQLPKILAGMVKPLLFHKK
Method in brief: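 PR-UAS-bla HEK293T cells with beta-lactamase reporter under UAS control, in 2% charcoal-stripped FBS, treated with compounds plus 1 nM promegestone (R5020, final) for 16 hr at 37C. Read-out: FRET beta-lactamase substrate fluorescence after 2 hr at room temperature.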

[7] = qHTS assay to identify small molecule agonists of the progesterone receptor (PR) signaling pathway - cell viability counter screen (AID 1346799; calls by dose curve; further: nearly all actives have a fitted effect of over 45% in size)
Method in brief: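 Counter screen in the PR-UAS-bla HEK293T wells (2% charcoal-stripped FBS, 16 h compound exposure at 37 C) after the bla read. CellTiter-Glo added, 30 min at room temperature, luminescence read as cell viability.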

[8] = target: Progesterone receptor (Homo sapiens) (UniProt P06401); experiment: qHTS assay to identify small molecule agonists of the progesterone receptor (PR) signaling pathway (AID 1346784; calls by dose curve; further: nearly all actives have a fitted effect of over 30% in size); conditions: PR-UAS-bla HEK293T, beta-lactamase FRET ratio, 16 h; activation: at 92.4 µM (top of the series) unless noted
Method in brief: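 PR-UAS-bla HEK 293T cells (beta-lactamase reporter under UAS) in 2% charcoal-stripped FBS, dosed with 23 nL compound after 6 hr, incubated 16hr at 37C. LiveBLAzer B/G FRET substrate added, fluorescence read after 2 hours.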

[9] = qHTS assay to identify small molecule agonists of the TGF-beta/Smad signaling pathway (AID 1346859; active means well fitted activation curve with a large enough effect in the signal ratio in the repeat runs, not every such curve was filed as active; inconclusive means weak or mixed curves; the % refers to the signal ratio); conditions: SBE-bla HEK293T, TGF-beta/Smad beta-lactamase reporter, 5 h; activation: at 76.8 µM (top of the series)
Method in brief: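 SBE-bla HEK293T cells plated overnight, then compound exposure for 5 h at 37 C. Beta-lactamase reporter read with LiveBLAzer B/G FRET substrate after 2 h at room temperature, fluorescence at 405 nm excitation, 460/530 nm emission.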

[10] = qHTS assay to identify small molecule antagonists of the estrogen receptor beta (ER-beta) signaling pathway - cell viability counter screen (AID 1259382); further: nearly all actives have a fitted effect of over 55% in size
Method in brief: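 Cytotoxicity counter screen multiplexed with the beta-lactamase antagonist assay: GripTite HEK293T ER-beta-bla cells were treated 16 hr with test chemicals in the presence of 1nM 17-beta-estradiol, and viability was measured by CellTiter-Glo.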

[11] = qHTS assay to identify small molecule antagonists of the progesterone receptor (PR) signaling pathway - cell viability counter screen (AID 1346798); further: nearly all actives have a fitted effect of over 50% in size
Method in brief: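 PR-UAS-bla HEK293T cells, 3,000/well in 2% charcoal-stripped FBS medium, dosed with compounds plus R5020 agonist and incubated 16 h at 37C. Viability then measured in the same wells by CellTiter-Glo luminescence after 30 min at RT.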
Potency means the concentration at half of the fitted maximal effect; tags describe the fitted curve by direction and shape or compound fluorescence and quenching.

**Q.** Which Potency [1] does the source give for `CS(C)=O` here?
**A.** active: 68.6 µM

**Q.** What about the Potency [2] of the same molecule?
**A.** inactive

**Q.** What about the Potency [3] of the same molecule?
**A.** inactive

**Q.** With `CC[N+]1(CC)CCC(=C(c2ccccc2)c2ccccc2)C1C` (configuration not stated) as the molecule, how does the Potency [1] read?
**A.** inconclusive: 1.06 µM [inhibitor, full curve]

**Q.** What about the Potency [4] of the same molecule?
**A.** inconclusive: 33.5 µM [cytotoxic, single point]

**Q.** And the Potency [5]?
**A.** inactive

**Q.** For `CCc1ccc(CCOc2ccc(CC3SC(=O)NC3=O)cc2)nc1` (configuration not stated), which Potency [1] is on record?
**A.** inconclusive: 12.2 µM [inhibitor, full curve]

**Q.** And the Potency [2]?
**A.** inconclusive: 27.3 µM [cytotoxic, partial curve] and inactive

**Q.** What about the Potency [5] of the same molecule?
**A.** inconclusive: 61.1 µM [cytotoxic, partial curve]

**Q.** And the Potency [6]?
**A.** inconclusive: 29.8 µM [rising, single point]

**Q.** And the activity change, negative = inhibition [6]?
**A.** inconclusive: -37.4%

**Q.** What about the Potency [7] of the same molecule?
**A.** inconclusive: 30.6 µM [rising, partial curve]

**Q.** Which results are given for `CCN1CCN(c2cc3c(cc2F)c(=O)c(C(=O)O)cn3C2CC2)CC1`?
**A.** Potency [1]: inactive; Potency [2]: inactive

**Q.** Which Potency [1] does the source give for `[O-][n+]1cccc(/C(Cl)=N/OC[C@@H](O)CN2CCCCC2)c1` here?
**A.** inconclusive: 29.8 µM [inhibitor, single point]

**Q.** And the Potency [2]?
**A.** inactive

**Q.** What does the source list for `C[C@H]1C[C@H]2[C@@H]3CCC4=CC(=O)C=C[C@]4(C)[C@@]3(Cl)[C@@H](O)C[C@]2(C)[C@@]1(O)C(=O)CO`?
**A.** Potency [1]: inactive; Potency [2]: inconclusive: 29.8 µM [cytotoxic, partial curve, poor fit]; Potency [3]: inconclusive: 29.8 µM [falling, partial curve]; Potency [8]: active: 0.0237 µM; activity change, negative = inhibition [6]: inconclusive: -34.2% [at 42.5 µM]; Potency [7]: inconclusive: 1.68 µM [rising, full curve, poor fit]; Potency [9]: inconclusive: 10.7 µM [rising, partial curve]

**Q.** Which Potency [1] does the source give for `Oc1c(Cl)ccc(Cl)c1Cl` here?
**A.** inconclusive: 68.6 µM [inhibitor, single point]

**Q.** What about the Potency [2] of the same molecule?
**A.** inconclusive: 68.5 µM [cytotoxic, single point] and inconclusive: 68.6 µM [cytotoxic, single point]

**Q.** And the Potency [10]?
**A.** inconclusive: 68.6 µM [cytotoxic, single point]

**Q.** For `O=C1c2cccc3c2[C@H](CCC3)CN1[C@@H]1CN2CCC1CC2`, which Potency [1] is on record?
**A.** inconclusive: 21.1 µM [inhibitor, partial curve, poor fit]

**Q.** And the Potency [2]?
**A.** inconclusive: 21.1 µM [cytotoxic, partial curve]

**Q.** What about the Potency [5] of the same molecule?
**A.** inconclusive: 26.6 µM [cytotoxic, partial curve]

**Q.** What about the Potency [6] of the same molecule?
**A.** inconclusive: 29.8 µM [rising, partial curve, poor fit]

**Q.** And the Potency [11]?
**A.** inconclusive: 23.7 µM [cytotoxic, partial curve]

**Q.** What about the Potency [7] of the same molecule?
**A.** active: 26.6 µM
